# Assay results published in the supplement of paper PMC8728848.
# Some of the results follow.
# Legend:
# Assay in all cases: glycan array binding signal (z-score within array); higher = stronger binding
# Details in all cases: glycan notation: IUPAC condensed, linker removed
# [1] = target: GalNAc(a1-3)GalNAc(b1-3)Gal(a1-4)Gal(b1-4)Glc
# In short: (§1)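 Glycan array data were curated from 3228 arrays in the Consortium for Functional Glycomics database and kept only where the protein sequence was available. Glycan names were converted to IUPAC-condensed notation, and columns mapping to the same glycan were averaged. The binding signal is a within-array Z-score, averaged across arrays of the same protein sequence at different concentrations or buffers and across linkers. Negative Z-scores can be read as non-binding.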
# [2] = target: GalNAc(a1-3)GalNAc(b1-3)Gal(a1-4)Gal(b1-4)GlcNAc
# In short: as §1
# GalNAc(b1-3)Gal = target: GalNAc(b1-3)Gal
# In short: as §1
# [3] = target: GalNAc(b1-3)Gal(a1-4)Gal(b1-4)GlcNAc
# In short: as §1
# [4] = target: GalNAc(b1-3)Gal(a1-4)Gal(b1-4)GlcNAc(b1-3)Gal(b1-4)Glc
# In short: as §1
# [5] = target: GalNAc(b1-3)Gal(a1-6)Gal(b1-4)Glc
# In short: as §1
# GalNAc(b1-3)GalNAc = target: GalNAc(b1-3)GalNAc
# In short: as §1
# GalNAc(b1-3)GlcNAc = target: GalNAc(b1-3)GlcNAc
# In short: as §1
# GalNAc(b1-4)Gal(b1-4)Glc = target: GalNAc(b1-4)Gal(b1-4)Glc
# In short: as §1
# GalNAc(b1-4)GlcNAc = target: GalNAc(b1-4)GlcNAc
# In short: as §1
# [6] = target: GalNAc(b1-4)GlcNAc(b1-2)Man
# In short: as §1
# [7] = target: GalNAc(b1-4)GlcNAc(b1-2)Man(a1-3)[GalNAc(b1-4)GlcNAc(b1-2)Man(a1-6)]Man(b1-4)GlcNAc(b1-4)GlcNAc
# In short: as §1
# [8] = target: GalNAc(b1-4)GlcNAc(b1-3)GalNAc(b1-4)GlcNAc
# In short: as §1
# GalNAc(b1-4)GlcNAc6S = target: GalNAc(b1-4)GlcNAc6S
# In short: as §1
# GalNAc(b1-6)GalNAc = target: GalNAc(b1-6)GalNAc
# In short: as §1
# GalNAc3S(b1-4)GlcNAc = target: GalNAc3S(b1-4)GlcNAc
# In short: as §1
# GalNAc3S(b1-4)GlcNAc3S = target: GalNAc3S(b1-4)GlcNAc3S
# In short: as §1
# [9] = target: GalNAc3S(b1-4)[Fuc(a1-3)]GlcNAc
# In short: as §1
# GalNAc4S6S(b1-4)GlcNAc = target: GalNAc4S6S(b1-4)GlcNAc
# In short: as §1
# GalNAc6S(b1-4)GlcNAc = target: GalNAc6S(b1-4)GlcNAc
# In short: as §1
# Glc(a1-4)Glc = target: Glc(a1-4)Glc
# In short: as §1
# [10] = target: Glc(a1-4)Glc(a1-4)Glc(a1-4)Glc
# In short: as §1
# Glc(a1-6)Glc(a1-6)Glc = target: Glc(a1-6)Glc(a1-6)Glc
# In short: as §1
# [11] = target: Glc(a1-6)Glc(a1-6)Glc(a1-6)Glc
# In short: as §1
# Glc(b1-4)Glc = target: Glc(b1-4)Glc
# In short: as §1
# Glc(b1-6)Glc = target: Glc(b1-6)Glc
# In short: as §1
# GlcA(b1-3)Gal = target: GlcA(b1-3)Gal
# In short: as §1
# GlcA(b1-3)GlcNAc = target: GlcA(b1-3)GlcNAc
# In short: as §1
# GlcA(b1-6)Gal = target: GlcA(b1-6)Gal
# In short: as §1
# [12] = target: GlcA3S(b1-3)Gal(b1-4)GlcNAc(b1-2)Man
# In short: as §1
# [13] = target: GlcA3S(b1-3)Gal(b1-4)GlcNAc(b1-3)Gal(b1-4)Glc
# In short: as §1
# [14] = target: GlcNAc(a1-3)Gal(b1-4)GlcNAc
# In short: as §1
# [15] = target: GlcNAc(a1-4)Gal(b1-3)GlcNAc
# In short: as §1
# [16] = target: GlcNAc(a1-4)Gal(b1-4)GalNAc
# In short: as §1
# [17] = target: GlcNAc(a1-4)Gal(b1-4)GlcNAc
# In short: as §1
# [18] = target: GlcNAc(a1-4)Gal(b1-4)GlcNAc(b1-3)Gal(b1-4)Glc
# In short: as §1
# [19] = target: GlcNAc(a1-4)Gal(b1-4)GlcNAc(b1-3)Gal(b1-4)GlcNAc
# In short: as §1
# [20] = target: GlcNAc(a1-4)Gal(b1-4)GlcNAc(b1-3)Gal(b1-4)GlcNAc(b1-3)Gal(b1-4)GlcNAc
# In short: as §1
# [21] = target: GlcNAc(a1-4)Gal(b1-4)GlcNAc(b1-3)Gal(b1-4)[Fuc(a1-3)]GlcNAc(b1-3)Gal(b1-4)[Fuc(a1-3)]GlcNAc
# In short: as §1
# [22] = target: GlcNAc(a1-6)Gal(b1-4)GlcNAc
# In short: as §1
# [23] = target: GlcNAc(b1-2)Gal(b1-3)GalNAc
# In short: as §1
# [24] = target: GlcNAc(b1-2)Man(a1-3)[GlcNAc(b1-2)Man(a1-6)]Man(b1-4)GlcNAc(b1-4)GlcNAc
# In short: as §1
# [25] = target: GlcNAc(b1-2)Man(a1-3)[GlcNAc(b1-2)Man(a1-6)]Man(b1-4)GlcNAc(b1-4)[Fuc(a1-6)]GlcNAc
# In short: as §1
# [26] = target: GlcNAc(b1-2)Man(a1-3)[GlcNAc(b1-4)][GlcNAc(b1-2)Man(a1-6)]Man(b1-4)GlcNAc(b1-4)GlcNAc
# In short: as §1
# [27] = target: GlcNAc(b1-2)Man(a1-3)[GlcNAc(b1-4)][GlcNAc(b1-2)Man(a1-6)]Man(b1-4)GlcNAc(b1-4)[Fuc(a1-6)]GlcNAc
# In short: as §1
binder,measurement,setting,value
WGA (Triticum vulgare) (protein) QRCGEQGSNMECPNNLCCSQYGYCGMGGDYCGKGCQNGACWTSKRCGSQAGGATCPNNHCCSQYGHCGFGAEYCGAGCQGGPCRADIKCGSQSGGKLCPNNLCCSQWGFCGLGSEFCGGGCQSGACSTDKPCGKDAGGRVCTNNYCCSKWGSCGIGPGYCGAGCQSGGCDAVFAGAITANSTLLAE,glycan array binding signal (z-score),[1],-0.322
same,glycan array binding signal (z-score),[2],-0.319
same,glycan array binding signal (z-score),GalNAc(b1-3)Gal,-0.318
same,glycan array binding signal (z-score),[3],0.119
same,glycan array binding signal (z-score),[4],-0.333
same,glycan array binding signal (z-score),[5],-0.316
same,glycan array binding signal (z-score),GalNAc(b1-3)GalNAc,-0.108
same,glycan array binding signal (z-score),GalNAc(b1-3)GlcNAc,-0.292
same,glycan array binding signal (z-score),GalNAc(b1-4)Gal(b1-4)Glc,-0.265
same,glycan array binding signal (z-score),GalNAc(b1-4)GlcNAc,2.78
same,glycan array binding signal (z-score),[6],2.71
same,glycan array binding signal (z-score),[7],2.38
same,glycan array binding signal (z-score),[8],2.8
same,glycan array binding signal (z-score),GalNAc(b1-4)GlcNAc6S,1.43
same,glycan array binding signal (z-score),GalNAc(b1-6)GalNAc,1
same,glycan array binding signal (z-score),GalNAc3S(b1-4)GlcNAc,0.055
same,glycan array binding signal (z-score),GalNAc3S(b1-4)GlcNAc3S,-0.384
same,glycan array binding signal (z-score),[9],-0.364
same,glycan array binding signal (z-score),GalNAc4S6S(b1-4)GlcNAc,-0.368
same,glycan array binding signal (z-score),GalNAc6S(b1-4)GlcNAc,2.33
same,glycan array binding signal (z-score),Glc(a1-4)Glc,-0.332
same,glycan array binding signal (z-score),[10],-0.309
same,glycan array binding signal (z-score),Glc(a1-6)Glc(a1-6)Glc,-0.364
same,glycan array binding signal (z-score),[11],-0.349
same,glycan array binding signal (z-score),Glc(b1-4)Glc,-0.351
same,glycan array binding signal (z-score),Glc(b1-6)Glc,-0.351
same,glycan array binding signal (z-score),GlcA(b1-3)Gal,-0.355
same,glycan array binding signal (z-score),GlcA(b1-3)GlcNAc,-0.359
same,glycan array binding signal (z-score),GlcA(b1-6)Gal,-0.307
same,glycan array binding signal (z-score),[12],-0.349
same,glycan array binding signal (z-score),[13],-0.339
same,glycan array binding signal (z-score),[14],2.52
same,glycan array binding signal (z-score),[15],1.59
same,glycan array binding signal (z-score),[16],1.14
same,glycan array binding signal (z-score),[17],2.77
same,glycan array binding signal (z-score),[18],2.56
same,glycan array binding signal (z-score),[19],2.55
same,glycan array binding signal (z-score),[20],3.16
same,glycan array binding signal (z-score),[21],2.13
same,glycan array binding signal (z-score),[22],-0.033
same,glycan array binding signal (z-score),[23],0.54
same,glycan array binding signal (z-score),[24],0.461
same,glycan array binding signal (z-score),[25],-0.336
same,glycan array binding signal (z-score),[26],1.9
same,glycan array binding signal (z-score),[27],1.84
